Several values for one entry are separate records, joined by “and”; a condition that tells them apart may be missing. Identical values can stand only once. The shares of active, inactive and inconclusive entries below differ from those in the screen. For part of these data: Potencies beside an inconclusive call are fits to weak or partial responses and may not hold up. Activity calls are given as the source filed them. Calls follow the shape of the dose curve; as a rule, active = well fitted curve in the direction sought with a large enough effect; inconclusive = small, poorly fitted or top-dose-only effect, or another doubt; inactive = no such curve, though single readings can be large; an effect the other way counts as inactive or inconclusive.
How the values were obtained:
[1] = P-glycoprotein substrates identified in KB-8-5-11 adenocarcinoma cell line, qHTS therapeutic library screen (AID 1346987); also: nearly all actives have a fitted effect of over 65% in size
Summary of the method: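 Steps: plate 500 KB-8-5-11 cells/well in DMEM + 10% FCS (colchicine removed); pin compounds in dose-response; incubate 72 h, 37 degree C, 5% CO2; add CellTiter-Glo, 5 min; read luminescence.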

[2] = Primary qHTS for inhibitors of nuclear receptor binding SET domain protein 2 (NSD2) in an isogenic RCH-ACV NSD2 p.E1099K mutant (9B) (AID 1645876); also: nearly all actives have a fitted effect of over 70% in size
[3] = Primary qHTS for inhibitors of nuclear receptor binding SET domain protein 2 (NSD2) in an RCH-ACV wild type WT cells (2C) (AID 1645877); details: activity change, negative = cell killing: at 44.9 µM (top of the series) unless noted; also: nearly all actives have a fitted effect of over 70% in size
[4] = Primary redox qHTS assay for identification of artifact compounds. (AID 1845223); details: Amplex Red/HRP redox cycling with DTT, fluorescence; redox activity (% of DA3003): at 53.8 µM (top of the series);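 as to redox activity (% of DA3003): 0% = DMSO and 100% = reference compound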
Summary of the method: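 Amplex Red (25 uM) and HRP (250 mU/mL) in HBSS, with compounds for 15 min, then 250 uM DTT for 30 min, room temperature, dark. Fluorescence 525/598 nm read; normalized to DMSO and 10 uM DA3003; Hill fit.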

HaCat = experiment: Cytotoxic Profiling of Annotated Libraries Using Quantitative High-Throughput Screening (AID 1296008); details: Five cell lines viability, CellTiter-Glo ATP luminescence, 48-72 h; max response: stronger effect = lower value; also: nearly all actives have a fitted effect of over 60% in size; as to max response: % is scaled to controls: 0 for no effect and ±100 for the full control effect
Summary of the method: (§1)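 Cytotoxicity was measured as CellTiter-Glo ATP luminescence, read after 10 min at room temperature. Compound treatment of the cells lasted 48 or 72 hr at 37 degrees Celsius in a qHTS format.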

KB-3-1 = experiment: as above; details: Five cell lines viability, CellTiter-Glo ATP luminescence, 48-72 h; max response: stronger effect = lower value
Summary of the method: as §1

NIH3T3 = experiment: as above; details: Five cell lines viability, CellTiter-Glo ATP luminescence, 48-72 h; max response: stronger effect = lower value
Summary of the method: as §1

C33A = experiment: Primary qHTS to identify gynecologic anti-cancer compounds using libraries of approved drugs and bioactive compounds (AID 1345084); details: Gynecologic cancer cell panel viability, ATPlite luminescence, 48 h; series mostly up to 57.5 µM; also: nearly all actives have a fitted effect of over 55% in size; as to activity change, negative = cytotoxicity: % is scaled to controls: 0 for no effect and ±100 for the full control effect
Summary of the method: (§2)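 Five-concentration response, 48 h; readout is ATP-driven luciferase luminescence.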

CAOV3 = experiment: as above; details: Gynecologic cancer cell panel viability, ATPlite luminescence, 48 h; activity change, negative = cytotoxicity: at 57.5 µM (top of the series)
Summary of the method: as §2

CASKI = experiment: as above; details: Gynecologic cancer cell panel viability, ATPlite luminescence, 48 h; series mostly up to 57.5 µM
Summary of the method: as §2

Es-2 = experiment: as above; details: Gynecologic cancer cell panel viability, ATPlite luminescence, 48 h; series mostly up to 57.5 µM
Summary of the method: as §2

Hek293T = experiment: as above; details: Gynecologic cancer cell panel viability, ATPlite luminescence, 48 h, control line for the selectivity index; activity change, negative = cytotoxicity: at 57.5 µM (top of the series) unless noted
Summary of the method: as §2

JEG-3 = experiment: as above; details: Gynecologic cancer cell panel viability, ATPlite luminescence, 48 h; series mostly up to 57.5 µM
Summary of the method: as §2

SKOV3 = experiment: as above; details: Gynecologic cancer cell panel viability, ATPlite luminescence, 48 h; series mostly up to 57.5 µM
Summary of the method: as §2

Tov-21-G = experiment: as above; details: Gynecologic cancer cell panel viability, ATPlite luminescence, 48 h; activity change, negative = cytotoxicity: at 57.5 µM (top of the series) unless noted
Summary of the method: as §2

Tov112D = experiment: as above; details: Gynecologic cancer cell panel viability, ATPlite luminescence, 48 h; series mostly up to 57.5 µM
Summary of the method: as §2

HeLa = experiment: as above; details: Gynecologic cancer cell panel viability, ATPlite luminescence, 48 h; activity change, negative = cytotoxicity: at 57.5 µM (top of the series)
Summary of the method: as §2

PA-1 = experiment: as above; details: Gynecologic cancer cell panel viability, ATPlite luminescence, 48 h; series mostly up to 57.5 µM
Summary of the method: as §2

OV90 = experiment: as above; details: Gynecologic cancer cell panel viability, ATPlite luminescence, 48 h; series mostly up to 57.5 µM
Summary of the method: as §2

[5] = Primary fluorescence-based thiol-reactive (MSTI) qHTS assay for identification of artifact compounds. (AID 1845221);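 also: thiol-reactive compounds lower the probe fluorescence signal; nearly all actives have a fitted effect of over 65% in size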
Summary of the method: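 In PBS pH 7.4 with 2% DMSO, each compound met 4 uM MSTI for one hour at ambient temperature, shielded from light, before fluorescence detection.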
Potency is read from the fitted curve at half-maximal effect; tags tell the direction and shape of the fitted curve.

C=C1C(=O)O[C@H]2[C@H]1[C@@H](OC(=O)/C(C)=C\C)C[C@]1(C)O[C@@H]1[C@H]1O[C@H]1C(=C)[C@H]2O
Potency [1]: inconclusive: 14.3 µM [inhibitor, single point] | Potency [2]: active: 7.13 µM | Potency [3]: active: 4.5 µM | Potency [4]: inactive | Potency (HaCat): inconclusive: 18 µM [inhibitor, single point] | Potency (KB-3-1): inconclusive: 20.2 µM [inhibitor, single point] | Potency (NIH3T3): inconclusive: 14.3 µM [inhibitor, single point] | Potency (C33A): inconclusive: 11.2 µM [cytotoxic, single point] | Potency (CAOV3): inconclusive: 28.2 µM [cytotoxic, single point] | Potency (CASKI): inconclusive: 11.2 µM [cytotoxic, single point] | Potency (Es-2): active: 11.2 µM | Potency (Hek293T): inconclusive: 12.6 µM [cytotoxic, single point] | Potency (JEG-3): inconclusive: 10 µM [cytotoxic, single point] | Potency (SKOV3): inconclusive: 28.2 µM [cytotoxic, single point] | Potency (Tov-21-G): inconclusive: 22.4 µM [cytotoxic, single point] | Potency (Tov112D): inconclusive: 20 µM [cytotoxic, single point]

CCC(=O)NS(=O)(=O)c1ccc(-c2c(-c3ccccc3)noc2C)cc1
max response (HaCat): inactive: -10.3% | max response (KB-3-1): inactive: -21.2% | outcome (KB-3-1): inactive

Cc1cc(Nc2nc(-c3ccccc3)nc3ccccc23)n[nH]1
Potency [1]: inconclusive: 2.91 µM [inhibitor, full curve] | Potency [2]: active: 2.9 µM | Potency (HaCat): inconclusive: 1.16 µM [inhibitor, full curve] | Potency (KB-3-1): inconclusive: 5.8 µM [inhibitor, partial curve] | Potency (NIH3T3): active: 9.2 µM | Potency (C33A): inactive | Potency (CAOV3): inconclusive: 11.2 µM [cytotoxic, partial curve] | Potency (CASKI): inconclusive: 11.2 µM [cytotoxic, partial curve] | Potency (HeLa): inconclusive: 1.78 µM [cytotoxic, full curve, poor fit] | Potency (Hek293T): inconclusive: 39.8 µM [cytotoxic, single point] | Potency (JEG-3): inconclusive: 39.8 µM [rising, single point] | Potency (PA-1): active: 10 µM | Potency (SKOV3): inconclusive: 3.16 µM [cytotoxic, single point] | Potency (Tov-21-G): active: 10 µM

Cc1c(CN2CCN(C(=O)C(C)O)CC2)sc2c(N3CCOCC3)nc(-c3cnc(N)nc3)nc12 (configuration not stated)
Potency [1]: active: 0.82 µM | Potency [2]: active: 0.0578 µM | Potency [3]: active: 0.0459 µM | Potency (HaCat): active: 2.31 µM | Potency (KB-3-1): active: 0.58 µM | Potency (NIH3T3): active: 1.3 µM | Potency (C33A): active: 2 µM | Potency (CAOV3): active: 1.41 µM | Potency (CASKI): active: 1.26 µM | Potency (Es-2): inconclusive: 1.12 µM [cytotoxic, full curve] | Potency (HeLa): inconclusive: 0.794 µM [cytotoxic, full curve, poor fit] | Potency (Hek293T): active: 0.891 µM | Potency (JEG-3): inconclusive: 2.51 µM [cytotoxic, full curve] | Potency (OV90): active: 1.78 µM | Potency (PA-1): inconclusive: 1 µM [cytotoxic, full curve, poor fit] | Potency (SKOV3): active: 1 µM | Potency (Tov-21-G): active: 2.24 µM | Potency (Tov112D): inconclusive: 1.12 µM [cytotoxic, full curve]

CC(C)n1cnc2c(Nc3cccc(Cl)c3)nc(NCCO)nc21
Potency [1]: active: 14.6 µM | Potency [2]: active: 11.5 µM | Potency [4]: inconclusive: 37.7 µM [activator, partial curve, poor fit] | Potency (HaCat): inconclusive: 23.1 µM [inhibitor, single point] | Potency (KB-3-1): inconclusive: 20.6 µM [inhibitor, single point] | Potency (NIH3T3): inconclusive: 29.1 µM [inhibitor, partial curve, poor fit] | Potency (SKOV3): inconclusive: 39.8 µM [cytotoxic, single point] | Potency (Tov-21-G): inconclusive: 39.8 µM [cytotoxic, single point]

O=C(Nc1ccc(Cl)cc1)Nc1ccc(Cl)c(C(F)(F)F)c1
Potency [1]: active: 20.6 µM | Potency (HaCat): inconclusive: 26.6 µM [inhibitor, single point] | Potency (KB-3-1): inconclusive: 25.9 µM [inhibitor, single point] | Potency (NIH3T3): inconclusive: 29.9 µM [inhibitor, single point] | Potency (C33A): active: 17.8 µM | Potency (CAOV3): inconclusive: 14.1 µM [cytotoxic, partial curve, poor fit] | Potency (CASKI): inconclusive: 39.8 µM [cytotoxic, single point] | Potency (Es-2): active: 28.2 µM | Potency (HeLa): active: 14.1 µM | Potency (Hek293T): active: 14.1 µM | Potency (OV90): active: 25.1 µM | Potency (PA-1): inconclusive: 28.2 µM [cytotoxic, single point] | Potency (SKOV3): inconclusive: 25.1 µM [cytotoxic, single point] | Potency (Tov-21-G): inconclusive: 31.6 µM [cytotoxic, single point] | Potency (Tov112D): active: 31.6 µM

Cc1csc2c(N[C@@H](C)CN3CCN(S(=O)(=O)c4ccc(Cl)c(Cl)c4)CC3)ncnc12
Potency [1]: inconclusive: 2.59 µM [inhibitor, full curve] | Potency [2]: active: 2.9 µM | Potency [3]: active: 8.17 µM | Potency [5]: inactive | Potency (HaCat): active: 2.91 µM | Potency (KB-3-1): inconclusive: 1.64 µM [inhibitor, full curve] | Potency (NIH3T3): inconclusive: 2.31 µM [inhibitor, partial curve, poor fit] | Potency (C33A): inconclusive: 2.24 µM [cytotoxic, full curve, poor fit] | Potency (CASKI): inconclusive: 7.94 µM [cytotoxic, full curve] | Potency (Es-2): inconclusive: 2.24 µM [cytotoxic, full curve, poor fit] | Potency (Hek293T): inconclusive: 2.82 µM [cytotoxic, full curve] | Potency (OV90): inconclusive: 3.16 µM [cytotoxic, full curve] | Potency (SKOV3): inconclusive: 1.26 µM [cytotoxic, full curve, poor fit]

C=C1C(=O)OC2/C=C(/C)C3=CC(=O)C(C)(CC(OC(=O)/C(C)=C/COC(C)=O)C12)O3 (configuration not stated)
Potency [1]: inconclusive: 14.2 µM [inhibitor, single point] | Potency (HaCat): inconclusive: 14.2 µM [inhibitor, single point] | Potency (KB-3-1): inconclusive: 7.96 µM [inhibitor, single point] | Potency (NIH3T3): active: 3.99 µM | Potency (C33A): inconclusive: 17.8 µM [cytotoxic, single point] | Potency (CAOV3): inconclusive: 15.8 µM [cytotoxic, single point] | Potency (CASKI): inconclusive: 10 µM [cytotoxic, single point] | Potency (Es-2): active: 7.08 µM | Potency (Hek293T): inconclusive: 12.6 µM [cytotoxic, partial curve, poor fit] | Potency (JEG-3): inconclusive: 10 µM [cytotoxic, single point] | Potency (PA-1): inconclusive: 11.2 µM [cytotoxic, single point] | Potency (SKOV3): inconclusive: 10 µM [cytotoxic, single point] | Potency (Tov-21-G): active: 11.2 µM | Potency (Tov112D): inconclusive: 11.2 µM [cytotoxic, single point]

COC(=O)Nc1ccc(-c2nc(N3CCOCC3)c3cnn(C4CCN(Cc5cccnc5)CC4)c3n2)cc1
Potency [3]: active: 0.662 µM | Potency (HaCat): active: 13.2 µM and inconclusive: 13 µM [inhibitor, partial curve, poor fit] | Potency (KB-3-1): active: 132 nM and active: 1.64 µM | Potency (NIH3T3): active: 83.3 nM and active: 920 nM | Potency (C33A): inconclusive: 20 µM [cytotoxic, partial curve, poor fit] | Potency (CAOV3): active: 8.91 µM | Potency (CASKI): inconclusive: 3.16 µM [cytotoxic, partial curve, poor fit] | Potency (HeLa): active: 25.1 µM | Potency (Hek293T): active: 2.24 µM | Potency (JEG-3): inconclusive: 28.2 µM [cytotoxic, single point] | Potency (OV90): active: 4.47 µM | Potency (PA-1): active: 15.8 µM | Potency (SKOV3): active: 2 µM | Potency (Tov112D): inconclusive: 10 µM [cytotoxic, partial curve, poor fit]

CN(C)c1ccc2c(c1)OC(N)=C(C#N)C2c1cccc(C(F)(F)F)c1 (configuration not stated)
Potency [5]: active: 2.12 µM | Potency [4]: inconclusive: 7.52 µM [activator, partial curve] | Potency (HaCat): inconclusive: 29.1 µM [inhibitor, single point] | Potency (KB-3-1): active: 0.291 µM | Potency (NIH3T3): inconclusive: 0.103 µM [inhibitor, full curve] | Potency (C33A): active: 0.631 µM | Potency (CAOV3): inconclusive: 44.7 µM [cytotoxic, partial curve, poor fit] | Potency (CASKI): inconclusive: 0.112 µM [cytotoxic, full curve, poor fit] | Potency (Es-2): active: 1 µM | Potency (HeLa): active: 0.501 µM | Potency (Hek293T): inconclusive: 0.316 µM [cytotoxic, full curve, poor fit] | Potency (JEG-3): active: 0.282 µM | Potency (OV90): active: 1.41 µM | Potency (PA-1): active: 0.178 µM | Potency (SKOV3): inconclusive: 0.141 µM [cytotoxic, full curve, poor fit] | Potency (Tov-21-G): active: 0.251 µM | Potency (Tov112D): active: 0.316 µM

Source: PubChem BioAssay (NCATS)
